Data reported in PubChem BioAssay (NCATS).
Inconclusive means that the source gave no clear call. Such entries were picked first, then a sample of the others. Potencies of inconclusive entries are doubtful fits and often do not repeat. Calls of active or inactive are those of the source. Calls follow the shape of the dose curve; as a rule, active = well fitted cell-killing curve with a large enough effect; inconclusive = small, poorly fitted or top-dose-only effect, or effect the other way; inactive = flat fitted curve, though single readings scatter.

System: Es-2
Experiment: Primary qHTS to identify gynecologic anti-cancer compounds using libraries of approved drugs and bioactive compounds (AID 1345084); also: nearly all actives have a fitted effect of over 55% in size
Details: Gynecologic cancer cell panel viability, ATPlite luminescence, 48 h; series mostly up to 57.5 µM
Procedure, shortened: (§1)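 In this quantitative HTS, cell killing is estimated from loss of ATP-dependent luciferase light. Cells see five compound concentrations over a 48 h exposure.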
Potency is read from the fitted curve at half-maximal effect; tags tell the direction and shape of the fitted curve.

| Compound | Potency |
| --- | --- |
| COc1cccc(-c2cc(F)ccc2C2Cc3nc(N)nc(C)c3C(=O)N2)n1 (stereo not drawn) | inconclusive: 0.316 µM [cytotoxic, full curve] |
| CN1CCN(c2ccc(OC(F)(F)F)c(Nc3ncc4c(n3)-c3c(c(C(N)=O)nn3CCO)CC4)c2)CC1 | inconclusive: 0.158 µM [cytotoxic, full curve, poor fit] |
| CCNC(=O)c1noc(-c2cc(Cl)c(O)cc2O)c1-c1ccc(OC)cc1 | inconclusive: 0.708 µM [cytotoxic, full curve] |
| CN1CCN(Cc2ccc(NC(=O)Cc3ccc(Oc4cc(NC(=O)C5CC5)ncn4)cc3)cc2C(F)(F)F)CC1 | active: 7.94 µM |
| CCN(CC)CCN(Cc1ccc(-c2ccc(C(F)(F)F)cc2)cc1)C(=O)Cn1c(SCc2ccc(F)cc2)nc(=O)c2c1CCC2 | inconclusive: 39.8 µM [cytotoxic, single point] |
| COc1cc([C@H]2O[C@H](c3cc(OC)c4c(c3)OCO4)[C@H](C)[C@H]2C)cc(OC)c1OC | inconclusive: 7.94 µM [cytotoxic, partial curve, poor fit] |
| C#Cc1cccc(Nc2nc3cc(C(=O)O)ccc3c3cncnc23)c1 | inconclusive: 25.1 µM [cytotoxic, single point] |
| CC(=O)Nc1ccc(NC(=S)NC(=O)c2ccc(C(C)(C)C)cc2)cc1 | inconclusive: 2.24 µM [cytotoxic, full curve] |
| COCCOCCOc1ccc(C2=N[C@@](C)(C(=O)O)CS2)c(O)c1 | inactive |
| C=C(C(=O)O)C1CC2=C(C)C(=O)CC2C(C)CC1O (stereo not drawn) | inconclusive: 35.5 µM [cytotoxic, partial curve, poor fit] |
| COc1cc(C[C@H]2C(=O)OC[C@@H]2Cc2ccc(OC)c(OC)c2)ccc1O | inconclusive: 8.91 µM [cytotoxic, partial curve, poor fit] |
| N#CC(CCCN1CCC(O)(c2ccc(Cl)cc2)CC1)(c1ccccc1)c1ccccc1 | inconclusive: 39.8 µM [cytotoxic, single point] |
| C=C1C(=O)OC2C(OC(=O)C=C(C)C)C(C)=C3C(=O)C=C(C)C3C(O)C12 (stereo not drawn) | inconclusive: 22.4 µM [cytotoxic, single point] |
| CC1(C)C2CC(OC3OC(COC4OCC(O)(CO)C4O)C(O)C(O)C3O)C1(C)CC2O (stereo not drawn) | inconclusive: 3.98 µM [cytotoxic, single point] |
| NC(=O)c1ccccc1Nc1ccnc(Nc2cccc(O)c2)n1 | inconclusive: 12.6 µM [cytotoxic, partial curve] |
| O=C(Nc1nc2cc(C(F)(F)F)cc(NC3CC3)n2n1)c1cccnc1 | inconclusive: 35.5 µM [cytotoxic, partial curve, poor fit] |
| CC(=O)OC[C@H]1O[C@@H](n2ncc(=O)[nH]c2=O)[C@H](OC(C)=O)[C@@H]1OC(C)=O | inconclusive: 7.94 µM [cytotoxic, partial curve] |
| CC(=O)C1=C(O)C2c3c[nH]c4cccc(c34)CC2C(C)(C)N(C)C1=O (stereo not drawn) | inconclusive: 39.8 µM [cytotoxic, single point] |
| CCOC(=O)c1cccc(CNc2ccc(N(C)C(=O)Nc3ccccc3)cc2)c1 | inconclusive: 10 µM [cytotoxic, partial curve] |
| Cc1noc(C)c1-c1cc(O)cc(C(O)c2ccccc2)c1 (stereo not drawn) | inconclusive: 35.5 µM [cytotoxic, single point] |
| C#CCN(Cc1cc2c(=O)[nH]c(C)nc2cc1Br)c1ccc(C(=O)NCc2cccnc2)cc1 | inconclusive: 0.141 µM |
| COc1ccc2nc(-c3cc(OC)c(OC)c(OC)c3)cc(C(=O)NCC(=O)Nc3ccc(C(C)=O)cc3)c2c1 | inactive |

System: HeLa
Experiment: as above
Details: Gynecologic cancer cell panel viability, ATPlite luminescence, 48 h; series mostly up to 57.5 µM
Procedure, shortened: as §1

| Compound | Potency |
| --- | --- |
| COc1cccc(-c2cc(F)ccc2C2Cc3nc(N)nc(C)c3C(=O)N2)n1 (stereo not drawn) | inconclusive: 0.282 µM [cytotoxic, full curve, poor fit] |
| CCNC(=O)c1noc(-c2cc(Cl)c(O)cc2O)c1-c1ccc(OC)cc1 | inconclusive: 0.631 µM [cytotoxic, full curve, poor fit] |
| O=C(Nc1ccc(Cl)cc1F)c1ccccc1O | inconclusive: 31.6 µM [cytotoxic, partial curve, poor fit] |
| CN1CCN(Cc2ccc(NC(=O)Cc3ccc(Oc4cc(NC(=O)C5CC5)ncn4)cc3)cc2C(F)(F)F)CC1 | active: 7.08 µM |
| CCN(CC)CCN(Cc1ccc(-c2ccc(C(F)(F)F)cc2)cc1)C(=O)Cn1c(SCc2ccc(F)cc2)nc(=O)c2c1CCC2 | inconclusive: 39.8 µM [cytotoxic, single point] |
| C[C@H](NC(=O)C(C)(C)Oc1ccc(C(F)(F)F)cn1)[C@@H](Cc1ccc(Cl)cc1)c1cccc(C#N)c1 | inconclusive: 39.8 µM [cytotoxic, single point] |
| C#Cc1cccc(Nc2nc3cc(C(=O)O)ccc3c3cncnc23)c1 | active: 11.2 µM |
| CC(=O)Nc1ccc(NC(=S)NC(=O)c2ccc(C(C)(C)C)cc2)cc1 | inactive |
| N#CC(CCCN1CCC(O)(c2ccc(Cl)cc2)CC1)(c1ccccc1)c1ccccc1 | inconclusive: 39.8 µM [cytotoxic, single point] |
| C=CC(=O)N1CCC(Oc2cc3c(Nc4ccc(Cl)c(Cl)c4F)ncnc3cc2OC)CC1 | inconclusive: 39.8 µM [cytotoxic, single point] |
| NC(=O)c1ccccc1Nc1ccnc(Nc2cccc(O)c2)n1 | active: 3.16 µM |
| O=C(Nc1nc2cc(C(F)(F)F)cc(NC3CC3)n2n1)c1cccnc1 | active: 12.6 µM |
| Cc1noc(C)c1-c1cc(O)cc(C(O)c2ccccc2)c1 (stereo not drawn) | inconclusive: 11.2 µM [cytotoxic, partial curve, poor fit] |
| CC(C)(C)Nc1nc(Nc2ccc(C(N)=O)cc2)cc(N)c1C#N | inconclusive: 25.1 µM [cytotoxic, single point] |
| CC(=O)N1CCN(CCOc2ccc(C3CCN(C4=Nn5c(nnc5C(F)(F)F)CC4)CC3)cc2)CC1 | inconclusive: 25.1 µM [cytotoxic, partial curve] |
| Cc1cc(N(C)C)ccc1-c1nc2ccc(-c3nc4ccc(N5CCN(C)CC5)cc4[nH]3)cc2[nH]1 | inactive |
